In PubChem BioAssay AID662 (National Center for Advancing Translational Sciences (NCATS), 2007):
Screen size: about 71,000 compounds; about 1,800 (2.5%) were called active. Inconclusive results, whose numbers are uncertain, are shown with a selection of clear calls. Calls come from the whole dose curve; as a rule, active = well fitted activation curve with a large enough effect in the signal ratio, with a control signal flat (not every such curve was filed as active); inconclusive = small, poorly fitted or top-dose-only effect, or effect the other way, or a change in a side signal; inactive = flat fitted curve, though single readings scatter; the % refers to the signal ratio. A potency beside an inconclusive call is a rough fit, not a confirmed value.

assay: Cell signaling CRE-BLA (Fsk stim); settings: CHO CRE-bla reporter (cAMP response element driving beta-lactamase), forskolin EC10, beta-lactamase ratio; activity change, negative = inhibition: at 38.2 µM (top of the series) unless noted; for activity change, negative = inhibition: % of control where 0% means no effect
Description: NIH Molecular Libraries Screening Centers Network [MLSCN]
NIH Chemical Genomics Center [NCGC]
Assay Provider: Marshall W. Nirenberg, U.S. National heart lung & blood institute
Memories persist for different lengths of time, from seconds or minutes to a lifetime. There are two kinds of memory: short-term memory (STM) and long-term memory (LTM). STM lasts for minutes to hours, which maybe mediated by modifications of molecules involved in synaptic functions. LTM lasts for days or longer, and may be due to the formation of new synapses or restructuring of existing synapses. LTM, but not STM, requires gene transcription and synthesis of proteins. CREB (cyclic-AMP Responsive Element Binding Protein) is one of the candidates plays an important role for enhancement of some types of LTM. CREB, a family of transcription factors, regulates the transcription of genes containing cAMP Responsive Elements (CRE). CRE is a nucleotide sequence often found in the promoter regions of genes that are binding sites for CREB.
Using a beta-lactamase reporter-gene under control of cAMP responsive element, a cell-based assay [CellSensor(TM) CRE-bla CHO developed by Invitrogen Corp.] was used to measure forskolin-induced signaling. Library compounds were measured for their ability to modulate positively or negatively the action of EC10 NKH 477, a water soluble forskolin, on reporter gene activity. Compounds were screened in a titration series in 1536-well format. Positive and negative modulators were identified based on the AC50 values derived from the screening data.
NCGC Assay Protocol Summary
2000 cells/5uL in Opti-MEM medium containing 0.5% dialyzed FBS, 0.1 mM NEAA, 1 mM sodium pyruvate and 10 mM HEPES was dispensed into 1536-well plates and cells were cultured at 37 degrees Celsius overnight. […] And then the plates were incubated at 37 degrees Celsius for 3 hours. 1 uL of CCF4-dye mixture was added to each well. After incubated at room temperature for 2 hours the plates were measured on an EnVision plate reader at Excitation 405nm, Emission1=460nm and Emission 2=530nm. The %Activity was determined from the ratio of 460nm/530nm.
Keywords: NIH Roadmap, MLSCN, MLSMR, qHTS, NCGC, CRE, beta-lactamase reporter-gene assay.
Potency is the fitted concentration of half-maximal effect; tags give direction and shape of the fitted curve.

Compound | activity change, negative = inhibition | Potency
CC(C)(C)C(=O)COC(=O)c1cccc(NC(=O)c2ccco2)c1 | inactive: 14.7% | 
CCC(C)O (centres undefined) | inactive: -5.31% | 
CCOc1ccccc1Nc1nc(N)nc(CSc2nccc(C)n2)n1 |  | inconclusive: 20 µM [rising, single point]
Fc1cccc(Cl)c1Cn1nnc2c(NCc3ccccn3)ncnc21 | inconclusive: 27% | 
C=CCn1cnc2c(c1=O)c1nc3ccccc3nc1n2/N=C/c1ccccn1 |  | active: 2.51 µM
N#Cc1cccc(-c2nc3cnc(N4CCOCC4)nc3n(Cc3ccc(F)cc3)c2=O)c1 |  | inconclusive: 5.01 µM [rising, partial curve]
O=C1NC(=O)C2(CCc3ccccc32)N1 (centres undefined) | inconclusive: -12.8% | 
COc1ccc(-c2nnc(SCC(=O)NCc3ccco3)n2C)cc1 |  | inconclusive: 12.6 µM [rising, single point]
O=C(CC(Nc1ccccc1)C(=O)O)c1ccccc1 (centres undefined) |  | inconclusive: 2.51 µM [falling, full curve, poor fit]
COc1ccc(CNc2nc(-c3ccc(C(=O)N(C)C)cc3)nc3ccccc23)c(OC)c1 |  | active: 1 µM
COc1ccc2cc(C(=O)NCc3ccco3)c(=Nc3ccc(C(=O)O)cc3)oc2c1 |  | inconclusive: 5.01 µM [rising, partial curve]
Cc1nc2cnc(OCc3ccccc3)nc2n(Cc2ccc(F)cc2)c1=O |  | inconclusive: 6.31 µM [rising, partial curve]
CC(=O)C1(C)CC2=C(CCCC2(C)C)CC1C (centres undefined) | inactive: -13.3% | 
CCCNC(=O)c1cc(-c2ccc(Br)cc2)on1 | inconclusive: 12.3% | 
Cc1ccc(-c2nnc(SCC(=O)Nc3ccc4c(c3)OCCO4)n2N)cc1 | inactive: -1.02% | 
O=C(CCNC(=O)Cn1ccc2ccccc2c1=O)NCCN1CCN(c2cccc(Cl)c2)CC1 | inactive: -13.8% | 
O=C(CSc1nnc2sc3ccccc3n12)c1ccco1 | inconclusive: -3.91% | 
Nc1nonc1C(=O)NCCNCc1cc(Br)ccc1OCc1ccc(F)cc1 | inactive: 1.91% | 
CN(C)CCNC(=O)Cn1nc(C(F)F)cc1C1CC1 | inconclusive: -3.1% | 
COC(=O)[C@H]1C[C@@H]1[C@H](N)c1ccccc1 | inactive: -1.28% | 
Cc1cnc(CNc2cc(-c3ccc(C(=O)N(C)C)cc3)ncn2)cn1 | inactive: 4.34% | 
O=C(Nc1ccc2oc(-c3ccccc3F)nc2c1)c1cncc(Br)c1 |  | active: 0.501 µM

Compound | activity change, negative = inhibition | Potency
CN(Cc1ccco1)c1nc(-c2ccc3c(c2)OCO3)nc2ccccc12 |  | inconclusive: 10 µM [rising, partial curve]
CCOC(=O)C1Cn2c(nc3c(c2=O)C(C)(C)Cc2ccccc2-3)S1 (centres undefined) |  | inconclusive: 25.1 µM [rising, single point]
COc1ccccc1N1CCN(CCCCN2C(=O)c3ccccc3C2=O)CC1 |  | inactive
Cc1ccc(CCNC(=O)CS(=O)Cc2nc(-c3cccc(C)c3)oc2C)cc1 (centres undefined) | inactive: -5.59% | 
CSc1nnc2c3cc(F)ccc3n(Cc3ccccc3)c2n1 |  | inconclusive: 1 µM [rising, full curve, poor fit]
CCOC(=O)COc1cccc2c(=O)n(CC(=O)NCc3ccc4c(c3)OCO4)ccc12 |  | active: 12.6 µM
CCOC(=O)c1cc2c(ccn2C)n1Cc1ccccc1C | inactive: -16.7% | 
Cc1cnc(C(=O)N2CCN(S(=O)(=O)c3ccc4ccccc4c3)CC2)cn1 | inconclusive: 5.54% | 
COc1ccc(C2C(C(=O)Nc3cc(C)on3)c3ccccc3C(=O)N2C)cc1 (centres undefined) | inconclusive: -6.47% | 
CCOC(=O)C1CSC(CC(=O)Nc2ccc(Cl)cc2)C(=O)N1 (centres undefined) | inconclusive: 11.5% | 
O=C(CCCN1C(=O)CSc2ncccc21)N1CCN(c2cccc(C(F)(F)F)c2)CC1 | inconclusive: -7.43% | 
COc1ccccc1CNC(=O)CN(C)CC(=O)Nc1cccc(F)c1 | inconclusive: -8.35% | 
COc1ccc2c(c1)Cc1sc(NC(=O)c3cccs3)nc1-2 | inactive: -22.7% | 
CCCCCCn1c(C(C)NC(=O)c2ccco2)nc2ccccc21 (centres undefined) | inconclusive: 4.23% | 
COc1ncc2ncc(=O)n(Cc3ccc(F)cc3)c2n1 | inactive: -0.381% | 
O=C(O)/C=C\c1ccc(O)c(O)c1 |  | inactive
Cc1ccc2cc(CCNC(=O)C(C)C)c(=O)[nH]c2c1C | inconclusive: 5.3% | 
CCCCCn1c(SCCc2ccccc2)nc2c1c(=O)[nH]c(=O)n2C | inactive: 11.7% | 
CC(=O)c1ccc(NC2CC(O)C(O)CO2)cc1 (centres undefined) | inconclusive: -14.9% | 
CCc1nc(N)c(C#N)c(-c2cccnc2)c1C |  | active: 10 µM
CCOC(=O)N1CCN(c2c(N3CCN(c4ccccc4OC)CC3)c(=O)c2=O)CC1 | inactive: 5.51% | 
COC(=O)C1CCN(C(=O)c2ccccc2Oc2ccccc2)CC1 |  | inconclusive: 0.0794 µM [rising, full curve]
